Measured values as given in the supplement of paper PMC3334620.
In all, about 33,000 sequences were measured (“E-score (-0.5 to 0.5)”: median about -0.041, highest 2% from about 0.37 on). The list shows a part of the results.

molecular target: T1, Ecm22 (UniProt Q05958); experiment: PBM E-score (8-mer binding enrichment) (E-score (-0.5 to 0.5)); higher = stronger / more preferred TF binding; most listed sequences are background and not binding sites; details: protein concentration: 200 nM; construct: GST-full length
T1 sequence: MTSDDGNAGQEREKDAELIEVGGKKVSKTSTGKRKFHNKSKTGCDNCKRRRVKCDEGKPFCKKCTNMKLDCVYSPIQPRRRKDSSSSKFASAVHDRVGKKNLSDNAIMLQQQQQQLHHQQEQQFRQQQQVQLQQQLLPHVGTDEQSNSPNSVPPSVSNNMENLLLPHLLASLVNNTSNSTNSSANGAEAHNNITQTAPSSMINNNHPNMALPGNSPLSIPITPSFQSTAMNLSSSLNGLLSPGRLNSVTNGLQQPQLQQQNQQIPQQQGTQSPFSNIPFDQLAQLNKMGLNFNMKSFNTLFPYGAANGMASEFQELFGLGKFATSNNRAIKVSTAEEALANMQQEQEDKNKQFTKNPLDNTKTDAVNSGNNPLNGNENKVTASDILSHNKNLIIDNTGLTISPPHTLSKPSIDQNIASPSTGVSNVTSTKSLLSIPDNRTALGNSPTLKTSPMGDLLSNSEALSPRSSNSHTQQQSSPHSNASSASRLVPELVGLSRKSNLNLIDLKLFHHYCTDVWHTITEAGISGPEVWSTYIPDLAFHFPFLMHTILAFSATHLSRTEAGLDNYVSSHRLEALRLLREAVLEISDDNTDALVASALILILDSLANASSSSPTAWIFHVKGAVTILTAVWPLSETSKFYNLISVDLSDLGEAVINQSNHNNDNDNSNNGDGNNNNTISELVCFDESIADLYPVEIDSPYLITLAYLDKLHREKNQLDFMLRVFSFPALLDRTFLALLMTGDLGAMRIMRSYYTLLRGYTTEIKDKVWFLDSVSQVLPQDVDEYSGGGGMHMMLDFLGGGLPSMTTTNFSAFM
In short: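 Masliner-normalised scans of fluorescent anti-GST signal were the basis for scoring. That signal came from GST-tagged yeast transcription factors applied at about 100-200 nM to double-stranded universal all-10-mer Agilent arrays on fresh or once-stripped slides. Each ungapped eight-base word, pooled with its reverse complement, received an E-score from the Universal PBM Analysis Suite.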

Sequence | PBM E-score
CCTTTTAC | -0.0016
AACAAATG | 0.12
GGACATAC | 0.176
ACTTAGAT | 0.0719
CGTTTGCA | 0.354
CAATGCTA | -0.136
CCGCTCGC | 0.186
AGGCCAAA | -0.151
CAAGGAAC | 0.249
CTGTCGAA | -0.00303
AGTGATAA | -0.166
AAAGCAAG | 0.0938
GCTTAAGA | 0.0878
AAGATTCG | 0.193
AGCTAACG | 0.0855
CTCAAGGA | -0.308
AAGCGCTG | -0.0362
ACCCATAG | -0.161
TCAGCCGA | 0.00199
AAGACCTC | -0.2
GCAGGACA | -0.0743
CTGTTACA | -0.15
CCTCGCTA | 0.215
ATATAAGA | 0.0784
AAATAAGA | -0.0512

Sequence | PBM E-score
ACCCGTTA | 0.239
GAAACCAA | -0.0549
AAGCGCGC | 0.223
ACGTGCTG | 0.0683
CCGAGTTC | 0.206
TCCGGGCA | 0.138
ATAGGGCC | -0.173
TCCTAGAA | -0.115
CCTCGATC | 0.0936
CGATACGC | 0.2
AGTGTTCA | -0.248
CTGTGCCC | -0.213
GAGGAGAC | -0.0502
ACCCGTCC | -0.336
CCTTTAGC | -0.073
CATACCGC | -0.0365
GCCTCCAC | -0.192
AGCTCGTG | 0.182
ACCGATCC | -0.0178
AAACGTTT | 0.328
CTGCACGA | 0.0961
TGGGGGAA | -0.152
GTCACCAA | -0.232
AATGGGGA | -0.15
ACGCGCTG | -0.0321

Sequence | PBM E-score
CCACGGTA | -0.146
GACACAAC | -0.157
GCATATGA | 0.0806
AAACAGTA | 0.0907
AATGGGCG | 0.0232
AAGAGTTA | -0.162
CGAGCCTA | 0.0933
ATGTTTTA | -0.0842
AGCATCTG | -0.0174
TAACCTGA | -0.106
AGAGAGCC | -0.152
ACGAATCC | 0.319
CTTTTATA | -0.0606
TACAACCA | 0.0482
AGCTCTCC | -0.11
CCGCAGTC | 0.0772
CCTTACAG | -0.129
ACGGACGA | 0.171
TTGATCAA | 0.211
CCAAGCCC | -0.117
CAGTAACA | -0.107
GTTGCGGA | 0.129
GTGGGATA | 0.0634
ATCAGTGG | -0.221
ACATTGGG | -0.136

Sequence | PBM E-score
TACTTAGA | -0.0709
AGAGGGCC | -0.0916
AAATTGGG | -0.058
ATTCTACA | 0.0155
ACCAGGCA | -0.226
CTAACGCC | -0.00716
AATATGGC | -0.0366
AGTGCACA | 0.0795
CAAAATGC | 0.0177
AGCCTGTC | 0.0499
AGGGTTAT | -0.0839
GCTATGTA | -0.0962
CCATGAGA | -0.118
ATGCGCCC | -0.0414
AGCTGGAG | -0.0565
ATCGTTTA | 0.483
CGTTGGGA | -0.0369
ATGAAGGG | -0.107
GACAGTAA | -0.0178
TGAATAAA | -0.0615
GCCAGACC | -0.171
CTACGGAG | -0.0418
CGGGATAG | 0.0594
AGGGCTTG | -0.105
CAAGCTAC | -0.0798

Sequence | PBM E-score
CGCCGAAG | -0.0988
ACCACTGG | -0.142
ACTGCAAT | -0.047
GCCCAGGC | -0.235
AGCAGCAG | -0.0665
ACTCGCGA | 0.287
GACGCGCC | 0.219
CGACCACA | 0.12
ACAATTCC | -0.298
ACAACGAA | 0.257
AGGGGGCA | -0.324
AAGAAACT | -0.108
CGATCCCA | 0.0456
ATCTGTTA | -0.11
GTGGTATA | 0.0154
CAAAATGA | -0.138
ATTATGGC | -0.251
AACATAAT | 0.0914
CCTTATCC | -0.225
ACGAGCAA | 0.288
CCCCCTGA | -0.285
CAATGAAC | 0.0859
ACACCACG | -0.0976
AGATCCTC | 0.0746
CAATTTTC | 0.106

Sequence | PBM E-score
CTATCGTA | 0.406
ACCATGAG | -0.073
AGTTAACT | -0.251
CATGTCAA | -0.144
CCAAAGCG | -0.0926
ATATTGGG | -0.0204
GAATCAGC | -0.27
AATGACCC | -0.0567
AGAGCGCG | 0.0848
CCCTATTA | -0.197
ACAGGGTG | -0.25
ATCTCAAC | 0.105
CAGGCCAA | -0.146
CATCGAAA | 0.0838
ACTCGATA | 0.138
AATGTCGG | 0.14
CCCCTATA | -0.212
AATACGCG | 0.17
TATCATCA | -0.00465
GTCAACTA | -0.244
GGCGTTAA | -0.0419
ACAGCGGT | -0.208
ATCACGGA | 0.0454
CCGTGTCG | 0.127
ACAGAGCC | -0.232

Sequence | PBM E-score
CACCAATC | -0.176
CTGGCAGA | -0.138
ACGAGTCT | 0.324
CTACGTCA | -0.0319
CACGTTAG | -0.107
GCTTAAAC | 0.252
CCGCATAG | 0.0973
CTCGCCAA | 0.148
ATTCCGTA | 0.284
ATCACCGG | -0.234
ATTTGGTG | -0.217
ACCATGTA | -0.123
CATTACTC | -0.0965
AGGAGCAG | -0.223
GTAATGAA | -0.109
AAACCATT | -0.279
ATGTGCCC | -0.108
CCTGAGTC | -0.0512
GAGAACGC | 0.117
AAACTCGA | 0.00475
CTGCTCGA | -0.0938
ACCATATG | -0.247
TAGCCCCA | -0.188
AGGTCCAG | 0.0166
CAGAAGAC | -0.11

Sequence | PBM E-score
CGCGTGCC | 0.0483
CTAAGGAA | 0.111
GTGAGGCA | -0.0698
CCCCCTCC | -0.275
ACACATGG | -0.138
AAGTCCCT | -0.283
TCCCCTCA | -0.281
GGAGAAGA | -0.239
CTTTGCTA | -0.111
CGCCGTAA | 0.26
GCGTTTAC | 0.227
CCTGCACG | -0.124
AAGGTAGC | -0.175
ATGCTACA | -0.136
CTATTGAC | -0.135
CGTAAGAA | 0.301
AGAGCTGC | -0.258
GATAATCC | -0.0229
AGTATAGC | 0.0261
AGCGTTCG | 0.092
ATAGGGCG | -0.0213
ATAAGCCA | -0.134
CGCCCACA | -0.138
ACAGGTGG | 0.0303
AGTGCGTC | -0.111

Sequence | PBM E-score
CGCGTACA | 0.269
GACCATAA | 0.154
TAAAGGAA | 0.0949
CGTAGACC | 0.0828
GATTGTCC | 0.0499
GCTCACGA | 0.0843
CCGCCGGA | -0.173
AACCAAGC | -0.104
ATGCGTGA | -0.00845
ATGCTGTC | -0.106
AACCACGC | 0.0409
ACAGTTAC | -0.0878
CTATGGTA | -0.0556
CGGTCGGA | 0.0409
ACAATATC | 0.041
ACACTAAC | -0.0602
CACACCCA | 0.173
ACTAGTGC | -0.178
ATTTTTGG | -0.307
